Measurements taken from article PMC4336329 (PLoS ONE, 2015).
Among all 310,000 compounds or so, about 14,000 (4.5%) showed an effect of 50% or more. Effects have a minus sign here. The list shows a part of the results.

Each compound was assayed against human ether-à-go-go-related gene (hERG) potassium channel (human, UniProt Q12809) (assay: primary screen, population patch clamp on CHO cells stably expressing hERG).
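Note: peak tail current of the secondary pulse compared with the same well before compound.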

Sequence of human ether-à-go-go-related gene (hERG) potassium channel (Q12809 whole entry, looked up): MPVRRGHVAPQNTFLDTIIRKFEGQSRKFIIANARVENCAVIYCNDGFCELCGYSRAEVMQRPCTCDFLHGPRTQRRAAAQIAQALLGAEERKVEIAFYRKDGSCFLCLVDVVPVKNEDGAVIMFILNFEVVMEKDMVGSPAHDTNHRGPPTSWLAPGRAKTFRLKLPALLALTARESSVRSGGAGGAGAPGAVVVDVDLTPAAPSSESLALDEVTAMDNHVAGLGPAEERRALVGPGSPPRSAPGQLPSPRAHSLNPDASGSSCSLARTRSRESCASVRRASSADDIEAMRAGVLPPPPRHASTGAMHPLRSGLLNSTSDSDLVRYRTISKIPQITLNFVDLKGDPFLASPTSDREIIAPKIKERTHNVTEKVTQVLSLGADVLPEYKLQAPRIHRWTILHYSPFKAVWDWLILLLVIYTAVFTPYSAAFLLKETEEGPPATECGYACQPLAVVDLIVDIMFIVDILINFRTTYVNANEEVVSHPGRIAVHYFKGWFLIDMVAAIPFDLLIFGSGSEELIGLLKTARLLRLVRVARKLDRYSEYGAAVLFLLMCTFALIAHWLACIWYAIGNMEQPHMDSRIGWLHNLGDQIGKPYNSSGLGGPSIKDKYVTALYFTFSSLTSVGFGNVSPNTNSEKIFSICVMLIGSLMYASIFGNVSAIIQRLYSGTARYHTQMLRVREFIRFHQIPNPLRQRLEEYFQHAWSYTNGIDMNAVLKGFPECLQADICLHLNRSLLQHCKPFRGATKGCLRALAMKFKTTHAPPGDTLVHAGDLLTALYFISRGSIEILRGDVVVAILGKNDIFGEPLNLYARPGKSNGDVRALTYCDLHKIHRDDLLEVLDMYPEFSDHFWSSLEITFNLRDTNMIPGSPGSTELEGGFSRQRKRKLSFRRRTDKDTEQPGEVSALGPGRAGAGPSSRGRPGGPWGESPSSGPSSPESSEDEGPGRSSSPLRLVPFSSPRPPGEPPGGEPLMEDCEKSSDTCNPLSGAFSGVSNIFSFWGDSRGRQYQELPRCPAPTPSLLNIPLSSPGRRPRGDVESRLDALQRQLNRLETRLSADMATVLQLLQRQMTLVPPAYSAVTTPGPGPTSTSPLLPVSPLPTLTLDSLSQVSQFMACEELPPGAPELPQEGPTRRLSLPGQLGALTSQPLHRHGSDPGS

| SMILES | hERG current change (%, negative = inhibition) at 10uM [%] |
| --- | --- |
| COc1ccc(CCNCc2ccc(OCc3ccccc3)cc2)cc1 | -41.6 |
| Cc1noc(C)c1C(=O)Nc1ccccc1-c1ccccc1 | 13.3 |
| CC(C)(C)c1nc(C(C)(C)C)c(Br)c(=O)[nH]1 | 2.34 |
| O=C(COC(=O)CCCc1nc2ccccc2s1)Nc1ncc(Cl)cc1Cl | 1.26 |
| Nn1cnc2scc(-c3cccs3)c2c1=O | 16.3 |
| Cn1c(N)c(C(=O)CN2CCc3ccccc3C2)c(=O)n(C)c1=O | -36.3 |
| COc1ccc(-c2nnc(Nc3ccc(CC(N)=O)cc3)c3ccccc23)cc1 | -14.1 |
| COCC(C)n1c(-c2ccc3c(c2)NC(=O)CO3)csc1=Nc1ccc(OC(F)F)cc1 (centres unmarked) | 2.76 |
| O=C(CSc1nc(=O)n2ccccc2n1)N1CCC(Cc2ccccc2)CC1 | -58.1 |
| Cc1ccc2cccc(OC(=O)c3ccc4c(c3)OCCO4)c2n1 | -5.66 |
| CNc1nc(-c2c[nH]c3ccccc23)cs1 | -2.45 |
| Cc1cc2nc(-c3ccc(SCc4ccccc4C#N)nc3)[nH]c2cc1C | 0.0557 |
| Cc1cc(C)n(-c2cccc(F)n2)n1 | 31.7 |
| CC(C)CCNC(=O)c1ccc(Cl)c(NC(=O)Cc2ccccc2)c1 | -9.16 |
| CCCCNC(=S)N(C)/N=C/c1c(F)c(F)c(F)c(F)c1F | -7.73 |
| CC(C)(C)c1ccc(OCC(O)CS(=O)(=O)c2ccccn2)cc1 (centres unmarked) | -4.33 |
| CCNc1c(NS(=O)(=O)c2ccc(C3CCCCC3)cc2)c(=O)oc2ccccc12 | 21.5 |
| C[C@H]1[C@@H](OC(=O)CCC(=O)O)O[C@@H]2O[C@@]3(C)CC[C@H]4[C@H](C)CC[C@@H]1[C@@]24OO3 | 1.58 |
| CCC(=O)Oc1ccc(C2NC(=O)c3ccccc3O2)cc1OC (centres unmarked) | 21 |
| COc1ccc2[nH]c(=O)c(CN(CCc3ccccc3)C(C)=O)cc2c1 | -21.7 |
| CSC1=NC(=O)/C(=C\c2cccc3ccccc23)S1 | 17.8 |
| O=C(Nc1ccccn1)c1cc2cc([N+](=O)[O-])ccc2s1 | 27.1 |
| Cc1ccc(-n2c(O)c(C=Nc3ccc(S(N)(=O)=O)cc3)c(=O)[nH]c2=O)cc1 | 14.9 |

| SMILES | hERG current change (%, negative = inhibition) at 10uM [%] |
| --- | --- |
| O=C(NCCCc1ccccc1)C1CCN(S(=O)(=O)c2ccc(F)cc2)CC1 | -60.7 |
| CCn1c(C(=O)OC)cc2c1ccn2-c1ccc(F)cc1 | 20.1 |
| CC(C)CNC(CC(=O)Nc1cccc([N+](=O)[O-])c1)C(=O)O (centres unmarked) | -1.01 |
| Cc1ccc2nc3c(c(N)c2c1)CCN3c1ccccc1.O=C(O)C(=O)O | -35.4 |
| CCCc1ccc2oc(C(=O)N3CCCC3)c(C)c2c1 | -7.11 |
| CCOc1ccccc1N1CCN(Cc2cn[nH]c2-c2ccc(F)cc2)CC1 | -72.3 |
| COc1ccc2cc(/C=C3\SC(=S)NC3=O)c(N3CCOCC3)nc2c1 | 17.5 |
| Cc1ccc(C)c(S(=O)(=O)NCc2ccc(C(=O)N3CCC(Cc4ccccc4)CC3)cc2)c1 | 5.28 |
| COc1ccc(C(CNC(=O)CNC(=O)c2cccc(C)c2)N2CCOCC2)cc1 (centres unmarked) | 9.11 |
| O=C(Nc1ccc(F)cc1Cl)c1ccc2c(=O)n3c(nc2c1)CCCCC3 | -4.13 |
| CCCCN1C(=O)C(C)=C(C)C1OCCc1ccc(OC)c(OC)c1 (centres unmarked) | 18.2 |
| Cc1ccccc1C(=O)NN(C)c1nc2ccccc2nc1C(F)(F)F | 17.3 |
| Cn1nc(C(F)(F)F)c2cc(C(=O)Nc3ccc(F)cc3F)sc21 | -0.969 |
| O=C(COC(=O)[C@H](Cc1ccccc1)NC(=O)c1ccco1)NC(c1ccccc1)c1ccccc1 | -6.39 |
| COc1ccc(/C=c2/sc3nc(-c4ccccc4)c(-c4ccccc4)n3c2=O)cc1 | -13.9 |
| O=C(N/N=C/c1ccco1)c1cc(-c2cccs2)[nH]n1 | 1.93 |
| COc1cc2c(cc1OC)[C@H](C)N(C(=O)NCc1ccccc1)CC2 | 5.78 |
| CCN1C(=O)CCC(C(=O)O)C1c1ccc(OC)cc1 (centres unmarked) | 13.1 |
| O=C(NCC(c1cccs1)N1CCOCC1)c1cc([N+](=O)[O-])cc([N+](=O)[O-])c1 (centres unmarked) | 5.88 |
| CCOC(=O)c1[nH]c(C)c(/C(O)=C2\C(=O)C(=O)N(CCN(C)C)C2c2ccc(C)o2)c1C (centres unmarked) | 14.6 |
| COc1ccc(C(=O)Nc2nc(CC(=O)NCCc3cccc(OC)c3)cs2)cc1 | -20.7 |
| Clc1cccc(Cl)c1-c1nnc2ccc(N3CCOCC3)nn12 | 1.97 |
| O=C(O)c1cc(-c2cccs2)nn1-c1cccc(Cl)c1 | 17.8 |

| SMILES | hERG current change (%, negative = inhibition) at 10uM [%] |
| --- | --- |
| O=C(COc1ccccc1)NC(Cc1c[nH]c2ccccc12)C(=O)O (centres unmarked) | -17.8 |
| COCCCn1c(CCC(=O)O)ccc1-c1cccs1 | -4.51 |
| CN(/N=C/c1ccc(C(C)(C)C)cc1)C1=NCCN1 | -71.6 |
| CCOc1ccc(NC(=O)CC2C(=O)N(c3ccc(OC)c(Cl)c3)C(=S)N2C2CC2)cc1 (centres unmarked) | -1.88 |
| CN1CCN(c2ccccc2NC(=O)c2ccc(-c3ccccc3)cc2)CC1 | -31.6 |
| CCOC(=O)c1cc[nH]c1C | 24.4 |
| Cc1ccc(-c2nc(=S)c3c(n2Cc2ccco2)CC(C)(C)OC3)cc1 | -18.2 |
| O=c1c2nnn(-c3ccc(Br)cc3)c2ncn1Cc1ccccn1 | -32.8 |
| NNC(=O)CN(CCc1ccccc1)S(=O)(=O)c1ccc(Cl)cc1 | -18.3 |
| CC(C)(C)OC(=O)CNC(=O)c1[nH]cnc1C(=O)Nc1ccc(Cl)cc1 | 20.4 |
| Cc1nc2oc3ccc(F)cc3c(=O)c2cc1C(=O)O | 5.61 |
| COc1ccc(S(=O)(=O)NC2CCSc3ccccc32)cc1NC(C)=O (centres unmarked) | 0.452 |
| CN1CCN(C2=Cc3ccccc3Sc3cc(F)ccc32)CC1.O=C(O)/C=C\C(=O)O | -62.8 |
| CC(=O)NC(c1cccs1)c1cc(F)c2cccnc2c1O (centres unmarked) | 11.4 |
| COc1ccc(OC)c(-c2csc(CCn3nc(C)cc3C)n2)c1 | 3.06 |
| COc1ccc(Cl)cc1NC(=O)COC(=O)CCNC(C)=O | -1.91 |
| CCN(CC)CCOC(=O)c1cccc(Cl)c1.Cl | -32.4 |
| Cc1ccnc(SCc2cc(=O)c(OC(=O)c3ccccc3)co2)n1 | 9.02 |
| COCCNC(=O)CN1CCCCCC1.Cl | 25.7 |
| CCc1ccc(NC(=S)N2CCC(NC(=O)C3CCCCC3)CC2)cc1 | 19.9 |
| CCN1CCN(CC(=O)c2c[nH]c3ccc(C)cc23)CC1 | -4.16 |
| O=C(NCC12CC3CC(C1)CC(CNC(=O)N1CCCC1)(C3)C2)N1CCCC1 | -3.73 |
| COc1ccc(NC(=O)c2ccco2)cc1NC(=O)COc1ccccc1[N+](=O)[O-] | 12.7 |

| SMILES | hERG current change (%, negative = inhibition) at 10uM [%] |
| --- | --- |
| O=C(O)CC1(CC(=O)NCc2ccc(-c3cccs3)cc2)CCCCC1 | 2.95 |
| COc1cc(N)ccc1-c1cc2ccccc2oc1=O | 7.64 |
| O=C1C2C3C=CC(C4CC34)C2C(=O)N1Cc1ccco1 (centres unmarked) | 4.37 |
| COc1cc(C(C)=O)ccc1Oc1cc(NN2CCCCC2)c([N+](=O)[O-])cc1[N+](=O)[O-] | -23.3 |
| O=C1NC(=Nc2ccccc2)S/C1=C/c1cccnc1 | 15.9 |
| COc1ccccc1C(=O)COC(=O)c1ccccc1O | 3 |
| NC(=O)CSc1oc(-c2ccco2)nc1S(=O)(=O)c1ccc(Br)cc1 | -22.7 |
| CCOP(=O)(CN(CC)CCNP(=O)(OCC)OCC)OCC | 6.87 |
| CC(C)c1ccc(C2=NN(c3ccccc3)C(=O)CC2)cc1 | -31.6 |
| CC(C)c1nnc(NC(=O)CCS(=O)(=O)c2nc(-c3cccs3)cc(C(F)(F)F)n2)s1 | 5.26 |
| CN1CCN(C(=O)C2=C[C@H](c3ccc(Br)cc3)C[C@H](OCCCCO)O2)CC1 | -47.7 |
| COC(=O)c1cc(=O)n(Cc2ccc(OC)cc2)c(=NCc2ccc(OC)cc2)s1 | 14 |
| O=C1NC2=C(C(=O)CCC2)C(c2ccc(OC(F)F)cc2)N1 (centres unmarked) | 10.3 |
| O=C1[C@H]2[C@@H](c3ccc(Cl)cc3)N3C(=O)N(c4cccc(F)c4)C(=O)[C@@]3(Cc3ccccc3)[C@H]2C(=O)N1C1CCCCC1 | 13.6 |
| O=C(NCc1cccc(Cl)c1)c1cnccn1 | -9.28 |
| Nc1nc2n(c1C(=O)c1ccccc1)CCC2 | -10.5 |
| CCCCCCCCNC(=O)/C(C#N)=C/c1ccc(SC)cc1 | 7.54 |
| C=CCc1c(N(CC)CC)nc(C)[nH]c1=O | -3.26 |
| CC(C)c1onc(C(=O)N2CCCCCC2)c1[N+](=O)[O-] | 6.89 |
| O=C(CCN1C(=O)C2C3C=CC(C3)C2C1=O)Oc1ccc2ccccc2c1 (centres unmarked) | 17.4 |
